# Results from the supplement of paper PMC8728848.
# Some of the results follow.
# B1: Mincle (Homo sapiens), Q9ULY5 (protein)
# chain: MNSSKSSETQCTERGCFSSQMFLWTVAGIPILFLSACFITRCVVTFRIFQTCDEKKFQLPENFTELSCYNYGSGSVKNCCPLNWEYFQSSCYFFSTDTISWALSLKNCSAMGAHLVVINSQEEQEFLSYKKPKMREFFIGLSDQVVEGQWQWVDGTPLTKSLSFWDVGEPNNIATLEDCATMRDSSNPRQNWNDVTCFLNYFRICEMVGINPLNKGKSL
# Key:
# Test in all cases: glycan array binding signal (z-score within array); higher = stronger binding
# Conditions in all cases: glycan notation: IUPAC condensed, linker removed
# Fuc(a1-2)Gal = biological target: Fuc(a1-2)Gal
# In short: (§1)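 From the Consortium for Functional Glycomics database, 3228 arrays were curated, keeping only those whose protein sequence was available. Binding is given as a within-array Z-score averaged across arrays sharing a protein sequence and across linkers. Negative Z-scores can be read as non-binding.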
# Fuc(a1-2)Gal(b1-3)GalNAc = biological target: Fuc(a1-2)Gal(b1-3)GalNAc
# In short: as §1
# [1] = biological target: Fuc(a1-2)Gal(b1-3)GalNAc(a1-3)[Fuc(a1-2)]Gal(b1-4)Glc
# In short: as §1
# [2] = biological target: Fuc(a1-2)Gal(b1-3)GalNAc(a1-3)[Fuc(a1-2)]Gal(b1-4)GlcNAc
# In short: as §1
# [3] = biological target: Fuc(a1-2)Gal(b1-3)GalNAc(b1-3)Gal
# In short: as §1
# [4] = biological target: Fuc(a1-2)Gal(b1-3)GalNAc(b1-3)Gal(a1-4)Gal(b1-4)Glc
# In short: as §1
# [5] = biological target: Fuc(a1-2)Gal(b1-3)GalNAc(b1-4)[Neu5Ac(a2-3)]Gal(b1-4)Glc
# In short: as §1
# Fuc(a1-2)Gal(b1-3)GlcNAc = biological target: Fuc(a1-2)Gal(b1-3)GlcNAc
# In short: as §1
# [6] = biological target: Fuc(a1-2)Gal(b1-3)GlcNAc(b1-2)Man(a1-3)[Fuc(a1-2)Gal(b1-3)GlcNAc(b1-2)Man(a1-6)]Man(b1-4)GlcNAc(b1-4)GlcNAc
# In short: as §1
# [7] = biological target: Fuc(a1-2)Gal(b1-3)GlcNAc(b1-3)Gal(b1-4)Glc
# In short: as §1
# [8] = biological target: Fuc(a1-2)Gal(b1-3)GlcNAc(b1-3)[Fuc(a1-3)[Gal(b1-4)]GlcNAc(b1-6)]Gal(b1-4)Glc
# In short: as §1
# [9] = biological target: Fuc(a1-2)Gal(b1-3)[Fuc(a1-4)]GlcNAc
# In short: as §1
# [10] = biological target: Fuc(a1-2)Gal(b1-3)[Fuc(a1-4)]GlcNAc(b1-2)Man(a1-3)[Fuc(a1-2)Gal(b1-3)[Fuc(a1-4)]GlcNAc(b1-2)Man(a1-6)]Man(b1-4)GlcNAc(b1-4)GlcNAc
# In short: as §1
# [11] = biological target: Fuc(a1-2)Gal(b1-3)[Fuc(a1-4)]GlcNAc(b1-3)[Fuc(a1-3)[Gal(b1-4)]GlcNAc(b1-6)]Gal(b1-4)Glc
# In short: as §1
# [12] = biological target: Fuc(a1-2)Gal(b1-3)[Fuc(a1-4)]GlcNAc(b1-3)[Gal(b1-4)GlcNAc(b1-6)]Gal(b1-4)Glc
# In short: as §1
# Fuc(a1-2)Gal(b1-4)Glc = biological target: Fuc(a1-2)Gal(b1-4)Glc
# In short: as §1
# Fuc(a1-2)Gal(b1-4)Glc6S = biological target: Fuc(a1-2)Gal(b1-4)Glc6S
# In short: as §1
# Fuc(a1-2)Gal(b1-4)GlcNAc = biological target: Fuc(a1-2)Gal(b1-4)GlcNAc
# In short: as §1
# [13] = biological target: Fuc(a1-2)Gal(b1-4)GlcNAc(b1-2)Man(a1-3)[Fuc(a1-2)Gal(b1-4)GlcNAc(b1-2)Man(a1-6)]Man(b1-4)GlcNAc(b1-4)GlcNAc
# In short: as §1
# [14] = biological target: Fuc(a1-2)Gal(b1-4)GlcNAc(b1-3)Gal(b1-4)GlcNAc
# In short: as §1
# [15] = biological target: Fuc(a1-2)Gal(b1-4)GlcNAc(b1-3)Gal(b1-4)GlcNAc(b1-3)Gal(b1-4)GlcNAc
# In short: as §1
# [16] = biological target: Fuc(a1-2)Gal(b1-4)GlcNAc(b1-3)GalNAc
# In short: as §1
# [17] = biological target: Fuc(a1-2)Gal(b1-4)GlcNAc6S
# In short: as §1
# [18] = biological target: Fuc(a1-2)Gal(b1-4)[Fuc(a1-3)]GlcNAc
# In short: as §1
# [19] = biological target: Fuc(a1-2)Gal(b1-4)[Fuc(a1-3)]GlcNAc(b1-2)Man(a1-3)[Fuc(a1-2)Gal(b1-4)[Fuc(a1-3)]GlcNAc(b1-2)Man(a1-6)]Man(b1-4)GlcNAc(b1-4)GlcNAc
# In short: as §1
# [20] = biological target: Fuc(a1-2)Gal(b1-4)[Fuc(a1-3)]GlcNAc(b1-3)Gal(b1-4)[Fuc(a1-3)]GlcNAc
# In short: as §1
# [21] = biological target: Fuc(a1-2)Gal(b1-4)[Fuc(a1-3)]GlcNAc(b1-3)Gal(b1-4)[Fuc(a1-3)]GlcNAc(b1-3)Gal(b1-4)[Fuc(a1-3)]GlcNAc
# In short: as §1
# Fuc(a1-2)Gal6S(b1-4)Glc = biological target: Fuc(a1-2)Gal6S(b1-4)Glc
# In short: as §1
# [22] = biological target: Fuc(a1-2)Gal6S(b1-4)Glc6S
# In short: as §1
# [23] = biological target: Fuc(a1-2)Gal6S(b1-4)GlcNAc
# In short: as §1
binder,measurement,setting,value
B1,glycan array binding signal (z-score),Fuc(a1-2)Gal,0
same,glycan array binding signal (z-score),Fuc(a1-2)Gal(b1-3)GalNAc,-0.399
same,glycan array binding signal (z-score),[1],0.081
same,glycan array binding signal (z-score),[2],0.077
same,glycan array binding signal (z-score),[3],-0.282
same,glycan array binding signal (z-score),[4],-0.28
same,glycan array binding signal (z-score),[5],-0.174
same,glycan array binding signal (z-score),Fuc(a1-2)Gal(b1-3)GlcNAc,-0.177
same,glycan array binding signal (z-score),[6],0.656
same,glycan array binding signal (z-score),[7],-0.221
same,glycan array binding signal (z-score),[8],0.093
same,glycan array binding signal (z-score),[9],-0.224
same,glycan array binding signal (z-score),[10],1.79
same,glycan array binding signal (z-score),[11],0.347
same,glycan array binding signal (z-score),[12],-0.23
same,glycan array binding signal (z-score),Fuc(a1-2)Gal(b1-4)Glc,-0.358
same,glycan array binding signal (z-score),Fuc(a1-2)Gal(b1-4)Glc6S,0.195
same,glycan array binding signal (z-score),Fuc(a1-2)Gal(b1-4)GlcNAc,-0.329
same,glycan array binding signal (z-score),[13],1.64
same,glycan array binding signal (z-score),[14],-0.419
same,glycan array binding signal (z-score),[15],0.144
same,glycan array binding signal (z-score),[16],-0.361
same,glycan array binding signal (z-score),[17],0.321
same,glycan array binding signal (z-score),[18],-0.37
same,glycan array binding signal (z-score),[19],0.167
same,glycan array binding signal (z-score),[20],-0.341
same,glycan array binding signal (z-score),[21],-0.204
same,glycan array binding signal (z-score),Fuc(a1-2)Gal6S(b1-4)Glc,-0.325
same,glycan array binding signal (z-score),[22],-0.076
same,glycan array binding signal (z-score),[23],-0.106
